Target: T1, CYP11A1 SA1 mutant (Bos taurus, UniProt P00189, N328D/R264T)
T1 sequence (P00189 40-520 R264T/N328D): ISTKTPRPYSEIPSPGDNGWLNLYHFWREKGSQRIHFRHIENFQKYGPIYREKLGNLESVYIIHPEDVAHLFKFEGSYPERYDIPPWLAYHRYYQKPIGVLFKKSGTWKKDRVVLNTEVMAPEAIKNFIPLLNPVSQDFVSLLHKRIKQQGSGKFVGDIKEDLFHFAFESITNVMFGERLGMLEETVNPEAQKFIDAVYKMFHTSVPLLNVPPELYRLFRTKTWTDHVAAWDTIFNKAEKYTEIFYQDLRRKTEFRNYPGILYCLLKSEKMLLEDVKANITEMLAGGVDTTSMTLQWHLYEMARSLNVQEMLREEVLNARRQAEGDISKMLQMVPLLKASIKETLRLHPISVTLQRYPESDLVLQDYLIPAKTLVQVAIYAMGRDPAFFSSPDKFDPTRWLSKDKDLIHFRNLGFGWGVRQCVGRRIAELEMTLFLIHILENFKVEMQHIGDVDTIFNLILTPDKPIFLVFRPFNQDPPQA
Details: after 48 hours, SA1 expressed in Bacillus megaterium (FIG. 2)
Protocol: The in vivo conversion of 300 μM cholesterol into pregnelonone was evaluated by HPLC after 24 h. Bacillus megaterium was cultivated in TB-medium containing 10 μg/ml tetracycline at 37° C. with 180 rpm shaking. Protein expression was induced by adding 0.25 g of xylose dissolved in 1 mL water, followed by the subsequent addition of the substrate, dissolved in 2-hydroxypropyl-β-cyclodextrin.
Finally the improved system was used to test the SA1 polypeptide conversion capacity with various substrates of biotechnological interest: campesterol, desmosterol, ergosta-5,24(28)-dien-3β-ol and a mixture of various 20, 22-OH oxysterols.
Pregnenolone formation was quantified for every substrate (FIG. 2). […] Conversion of the more hydrophobic sterols campesterol, desmosterol and ergostadienol only occurred at a rate of approximately 19% after 48 hours, compared to cholesterol.

| pregnenolone formation [mg/L] | Structure (SMILES) | conversion rate compared to cholesterol |
| --- | --- | --- |
|  | CC(C)[C@H](C)CC[C@@H](C)[C@H]1CC[C@H]2[C@@H]3CC=C4C[C@@H](O)CC[C@]4(C)[C@H]3CC[C@]12C [campesterol] | approximately 19% |
| ~35 | CC(C)CCC[C@@H](C)[C@H]1CC[C@H]2[C@@H]3CC=C4C[C@@H](O)CC[C@]4(C)[C@H]3CC[C@]12C [cholesterol] |  |
|  | CC(C)=CCC[C@@H](C)[C@H]1CC[C@H]2[C@@H]3CC=C4C[C@@H](O)CC[C@]4(C)[C@H]3CC[C@]12C [desmosterol] | approximately 19% |
|  | C=C(CC[C@@H](C)[C@H]1CC[C@H]2[C@@H]3CC=C4C[C@@H](O)CC[C@]4(C)[C@H]3CC[C@]12C)C(C)C [ergostadienol, ergosta-5,24(28)-dien-3β-ol] | approximately 19% |

Reference: patent US10155934B2, “Cytochrome P450 polypeptide with increased enzyme activity” (SANOFI, priority 2014, dated 2018)
